Among all 94,000 compounds or so, about 6,200 (6.6%) were called active. The inconclusive results got no clear call from the source; some entries with a clear call stand among them for comparison. Calls follow the shape of the dose curve; as a rule, active = well fitted inhibition curve with a large enough effect; inconclusive = small, poorly fitted or top-dose-only effect; inactive = flat fitted curve, though single readings scatter. Potencies beside an inconclusive call are fits to weak or partial responses and may not hold up.
experiment: Cytotoxic Profiling in HEK 293 Cell Line of Diverse Libraries Using Quantitative High-Throughput Screening; conditions: HEK 293 viability, ATP luminescence (CellTiter-Glo), 48-72 h; activity change, negative = cytotoxicity: at 115 µM (top of the series) unless noted; series mostly up to 115 µM; also: nearly all actives have a fitted effect of over 60% in size
Procedure, shortened: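 Read-out: CellTiter-Glo ATP luminescence. Cells: HEK 293, 250 cells/well. Exposure: 48 or 72 hr, 37 degree Celsius.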
% is scaled to controls: 0 for no effect and ±100 for the full control effect; potency is read from the fitted curve at half-maximal effect; tags tell the direction and shape of the fitted curve.

| Compound | activity change, negative = cytotoxicity | outcome | Potency |
| --- | --- | --- | --- |
| c1ccc(-c2nnc([C@H]3CCN(C4CCOCC4)C3)o2)cc1 | inactive: -1.36% [at 172 µM] | – | – |
| CC(C)NC(=O)C[C@@H]1O[C@H](CNC(=O)c2cccc(F)c2)[C@@H](O)[C@H]1O | – | inactive [at 172 µM] | – |
| Cc1cccc(NC(=O)N2CCc3c(C(=O)N(C)Cc4ccco4)cccc32)c1 | – | – | inconclusive: 50.1 µM [inhibitor, partial curve, poor fit] |
| CCS(=O)(=O)Nc1ccc(C2(C(=O)NCc3cccc(C)c3)CCC2)cc1 | – | – | inconclusive: 89.1 µM [inhibitor, single point] |
| Cc1occc1C(=O)N1CCC2(CCCN(CC3CCCCC3)C2=O)C1 (centres undefined) | – | – | inconclusive: 50.1 µM [inhibitor, partial curve, poor fit] |
| COc1ccc(OC)c(NC(=O)C2CN(S(=O)(=O)C3CC3)CC23CCCCC3)c1 (centres undefined) | – | – | inconclusive: 50.1 µM [inhibitor, partial curve, poor fit] |
| Cn1ncc2c(C(=O)NC3CCCc4ccccc43)cc(-c3ccccc3C(F)(F)F)nc21 (centres undefined) | – | – | inconclusive: 17.8 µM [inhibitor, full curve, poor fit] |
| COC(=O)[C@@H]1Cc2ncn(C(C)C)c2CN1S(=O)(=O)c1cccc2c(N(C)C)cccc12 | inactive: -17.5% | – | – |
| COCCN1C(=O)CS(=O)C12CCN(C(=O)NC1CCCC1)CC2 (centres undefined) | – | inactive | – |
| COc1ccc(-c2cc(N3CCCN(C(=O)c4ccc(Cl)cc4)CC3)n[nH]2)cc1 | – | – | inconclusive: 50.1 µM [inhibitor, partial curve, poor fit] |
| O=C(Nc1ccc(F)cc1)c1ccc2cncn2c1 | – | – | inconclusive: 100 µM [inhibitor, partial curve] |
| O=C(c1ccc(Oc2ccccc2)cc1)N1CCC2OCCN(c3ccccc3)C(=O)C2C1 (centres undefined) | – | – | inconclusive: 56.2 µM [inhibitor, partial curve, poor fit] |
| CC(C)(C)C(Cn1ccnc1)NC(=O)c1cc(COc2ccc3c(c2)CCCC3)on1 (centres undefined) | – | – | active: 25.1 µM |
| COc1ccc(C(C)NC(=O)c2cc3c(n2C)CCN(Cc2ccccc2)C3)cc1OC (centres undefined) | – | – | inconclusive: 50.1 µM [inhibitor, partial curve, poor fit] |
| CCc1nc2c(c(-c3ccc(O)cc3)n1)CN(C(=O)Cc1cccc(Cl)c1)CC2 | – | – | inconclusive: 63.1 µM [inhibitor, partial curve, poor fit] |
| CN1Cc2nc(NCc3ccccc3)ccc2OCC1=O | – | – | inconclusive: 100 µM [inhibitor, partial curve, poor fit] |
| COc1cccc(CN2CCOC[C@H](Oc3ccc(C(F)(F)F)cc3)C2)c1 | – | – | inconclusive: 126 µM [inhibitor, single point] |
| COc1ccc(CN(C)Cc2ccoc2)cc1OCC(O)CN1CCCCC1 (centres undefined) | – | – | inconclusive: 79.4 µM [inhibitor, partial curve, poor fit] |
| CC1=C[C@@H](CNCc2ccc(F)cc2)[C@H](C(C)C)C[C@H]1Cc1nnc(C)o1 | – | – | inconclusive: 100 µM [inhibitor, partial curve] |
| CCNC(=O)Nc1ccc(OCC(=O)N2CCC(C)CC2)nc1 | – | – | inconclusive: 89.1 µM [inhibitor, single point] |

| Compound | activity change, negative = cytotoxicity | outcome | Potency |
| --- | --- | --- | --- |
| CCOC(=O)[C@H]1C[C@]2(CCCCN(CCO)C2=O)N(C(=O)c2cccc(OC)c2)[C@H]1c1ccco1 | inactive: -19.9% | – | – |
| COc1ccc(-c2ccc3ncc(Nc4cnccn4)n3n2)cc1OC | – | – | inconclusive: 100 µM [inhibitor, partial curve] |
| CCOc1ccc(CC(=O)NC2CCN(c3cc(-c4ccc(F)cc4)[nH]n3)C2)cc1OCC (centres undefined) | – | – | inconclusive: 50.1 µM [inhibitor, partial curve, poor fit] |
| CC(=O)N[C@@H]1CN(C(=O)c2cnc3ccccc3c2)C[C@H]1c1ccc(C)cc1 | inactive: 0.0937% | – | – |
| CCc1nc2c(c(-c3ccc(OC)cc3)n1)CCN(C(=O)c1ccc(C)cc1)CC2 | inactive: -27.9% | – | – |
| CC(C)(C)OC(=O)N1CC(NCc2ccc(-c3ccc(OC(F)(F)F)cc3)cc2)C1 | – | – | inconclusive: 39.8 µM [inhibitor, partial curve, poor fit] |
| CCC(c1cccs1)N1C(=O)[C@H]2CN(S(=O)(=O)Cc3ccccc3)C[C@H]2C1=O (some centres undefined) | – | – | inconclusive: 56.2 µM [inhibitor, partial curve, poor fit] |
| Cc1ccc(-c2nnc(C3CN(C(=O)c4cc(F)ccc4F)CC34CCOCC4)o2)cc1 (centres undefined) | – | – | inconclusive: 50.1 µM [inhibitor, partial curve, poor fit] |
| CC(C)(C)c1ccc(-c2cc(C[C@H]3CNCC[C@H]3CC(=O)Nc3nccs3)no2)cc1 | – | – | inconclusive: 17.8 µM [inhibitor, full curve, poor fit] |
| COc1ccc(S(=O)(=O)N2CCC(c3noc(-c4cccnc4)n3)C2)cc1 (centres undefined) | inactive: -8.19% | – | – |
| Clc1ccc(Oc2cccc(CN3CCN(C4CCNC4)CC3)c2)cc1 (centres undefined) | – | – | active: 28.2 µM |
| Cc1ccccc1C(=O)N1CCCN(c2ccc3nnc(C4CC4)n3n2)CC1 | inactive: 4.15% | – | – |
| COc1ccc(Cc2ncc3c(n2)CN(C(=O)c2ccc(Cl)c(C)c2)C3)cc1 | – | – | inconclusive: 89.1 µM [inhibitor, single point] |
| CC[C@@]1(C(=O)O)C[C@H](C(=O)N(C)CCOC)[C@H](c2ccc(OC)cc2)N1C | – | – | inconclusive: 100 µM [inhibitor, partial curve, poor fit] |
| Cc1noc(-c2cccc(F)c2)c1C(=O)NCc1ccc(Cl)cc1 | – | – | inconclusive: 79.4 µM [inhibitor, partial curve, poor fit] |
| Clc1ccc(-c2cnc3n2C[C@H](CNC2CCCC2)OC3)cc1 | – | – | inconclusive: 100 µM [inhibitor, partial curve, poor fit] |
| COc1ccc(C2Cn3cnc(C(=O)N4CCC(C(=O)Nc5cccc(Cl)c5)CC4)c3CO2)cc1 (centres undefined) | – | – | inconclusive: 44.7 µM [inhibitor, partial curve, poor fit] |
| COc1ccc(C(=O)N2CCOCC3(CN(Cc4cc(F)cc(F)c4)C3)C2)c(OC)n1 | inactive: -71.5% [at 172 µM] | – | – |
| CC1(c2noc(-c3ccccc3)n2)CCN(C(=O)CCc2cc(Cl)no2)CC1 | – | – | inconclusive: 79.4 µM [inhibitor, partial curve, poor fit] |

Reference: PubChem BioAssay AID1345083 (National Center for Advancing Translational Sciences (NCATS), 2018)
